This is an account of results in a collection of fitness landscapes (doi:10.1126/science.1257360).

Sequences and labels used below:
B1: PhoQ; a variant is named by its letters at X, in order, P23837 (parent)
chain: MKKLLRLFFPLSLRVRFLLATAAVVLVLSLAYGMVALIGYSVSFDKTTFRLLRGESNLFYTLAKWENNKLHVELPENIDKQSPTMTLIYDENGQLLWAQRDVPWLMKMIQPDWLKSNGFHEIEADVNDTSLLLSGDHSIQQQLQEVREDDDDAEMTHSVAVNVYPATSRMPKLTIVVVDTIPVELKSSYMVWSWFIYVLSANLLLVIPLLWVAAWWSLRPIEALAKEVRELEEHNRELLNPATTRELTSLVRNLNRLLKSERERYDKYRTTLTDLTHSLKTPLXXLQXXLRSLRSEKMSVSDAEPVMLEQISRISQQIGYYLHRASMRGGTLLSRELHPVAPLLDNLTSALNKVYQRKGVNISLDISPEISFVGEQNDFVEVMGNVLDNACKYCLEFVEISARQTDEHLYIVVEDDGPGIPLSKREVIFDRGQRVDTLRPGQGVGLAVAREITEQYEGKIVAGESMLGGARMEVIFGRQHSAPKDE

Some of the results follow. Where only a bound is given, the exact number is not on record here.

This assay covers variants of B1. The assay can be described thus: enrichment ratio after two sorts for PhoP signalling (ratio (wild type AVST 3.29)); higher = more functional. Particulars: with PhoP (E. coli).
Consider GTES, for which the enrichment ratio was not above 0.25. The figure for MQDS is not above 0.25. For the variant WTGK, the enrichment ratio was not above 0.25. The figure for AVQH is not above 0.25; for IFAK it is not above 0.25.

PFWA: the enrichment ratio is not above 0.25. The figure for GHGP is not above 0.25; for CRKI it is not above 0.25; for YSLG it is 7.21. As for RHWY, the enrichment ratio is not above 0.25. The figure for SGVS is 13; for ASIW it is not above 0.25. The figure for SNFH is not above 0.25; for WDAE it is not above 0.25; for RYVA it is not above 0.25.

For FMMG, the enrichment ratio was not above 0.25. Consider NSRM, for which the enrichment ratio was not above 0.25.

Turning to SDGT, the enrichment ratio is not above 0.25.

Turning to LHEM, the enrichment ratio was not above 0.25. The figure for MFVV is not above 0.25. As to ISMY, the enrichment ratio was not above 0.25. The figure for NRGH is not above 0.25.

Consider HHSN, for which the enrichment ratio was not above 0.25. The figure for IDCY is not above 0.25; for HFCL it is not above 0.25. The figure for SIFV is not above 0.25; for GDQG it is not above 0.25; for KQHC it is not above 0.25. The figure for GGLS is 10.6. In the case of QVRV, the enrichment ratio was not above 0.25. Consider WDPR, for which the enrichment ratio is not above 0.25. The figure for QDPC is not above 0.25.

LGSP: the enrichment ratio was not above 0.25.

For the variant EGYV, the enrichment ratio was not above 0.25. The figure for RHGH is not above 0.25; for FDNK it is not above 0.25; for RPTI it is not above 0.25. On to DFKH, for which the enrichment ratio is not above 0.25. The figure for FKDN is not above 0.25; for FHQV it is not above 0.25.

For the variant HDRC, the enrichment ratio was not above 0.25. Regarding GKDP, the enrichment ratio was not above 0.25. Consider VTPH, for which the enrichment ratio was not above 0.25.

Take TFWI: the enrichment ratio is not above 0.25. Regarding VWLF, the enrichment ratio was not above 0.25. The figure for HTAY is not above 0.25. The figure for HDIQ is not above 0.25; for YDQT it is not above 0.25. The figure for PCFF is not above 0.25; for MDSM it is not above 0.25. Consider ERDQ, for which the enrichment ratio was not above 0.25.

Consider DRKN, for which the enrichment ratio was not above 0.25. Turning to TGFP, the enrichment ratio was not above 0.25.

Regarding MANF, the enrichment ratio is not above 0.25. Regarding DCFF, the enrichment ratio is not above 0.25. The figure for QKMA is not above 0.25; for FPKD it is not above 0.25. NAPV: the enrichment ratio is not above 0.25. The figure for GFNL is 0.304. For the variant FWIK, the enrichment ratio is not above 0.25. The figure for YAAP is not above 0.25; for ETTI it is not above 0.25. The figure for MAWV is not above 0.25.

Regarding NKKY, the enrichment ratio was not above 0.25. Take DPNR: the enrichment ratio is not above 0.25.

Turning to AKDG, the enrichment ratio is not above 0.25. The figure for KMYL is not above 0.25. The figure for AMVM is 5.51; for WRKW it is not above 0.25. As to GYSD, the enrichment ratio is not above 0.25. As for RTFF, the enrichment ratio was not above 0.25. The figure for VYTN is not above 0.25; for QTWK it is not above 0.25. For the variant SFSL, the enrichment ratio is not above 0.25.

On to LFWC, for which the enrichment ratio was not above 0.25. The figure for YDAH is not above 0.25; for SVWD it is not above 0.25. For LMAE, the enrichment ratio is not above 0.25.

Regarding RLTA, the enrichment ratio is not above 0.25. The figure for SRRV is not above 0.25. As to MLTC, the enrichment ratio is not above 0.25. With PHRP, the enrichment ratio was not above 0.25. Consider ILGQ, for which the enrichment ratio was not above 0.25. The figure for FQQM is not above 0.25; for GCMY it is not above 0.25. The figure for GMHL is not above 0.25. On to QACS, for which the enrichment ratio was not above 0.25.

Regarding QQPI, the enrichment ratio was not above 0.25. The figure for TEED is not above 0.25. The figure for EKRR is not above 0.25.

Consider NPDQ, for which the enrichment ratio was not above 0.25. For the variant FIWS, the enrichment ratio was not above 0.25. RMWL: the enrichment ratio is not above 0.25. On to QRKC, for which the enrichment ratio is not above 0.25. The figure for GDAV is 8.98. The figure for VGHA is not above 0.25; for HIVD it is not above 0.25; for KCNS it is not above 0.25. The figure for LFRE is not above 0.25; for SSCM it is 19. For the variant LRME, the enrichment ratio was not above 0.25.

In the case of MYMV, the enrichment ratio was found to be 0.602. The figure for RFVK is not above 0.25; for KTPV it is not above 0.25. GTTF: the enrichment ratio came to 8.24. The figure for ISES is not above 0.25; for YKIE it is not above 0.25; for ESFP it is not above 0.25. The figure for DIYA is not above 0.25; for HGEE it is not above 0.25; for IHTT it is 1.73. The figure for RQWW is not above 0.25; for NSYR it is not above 0.25; for SQAK it is not above 0.25. In the case of VMVC, the enrichment ratio is not above 0.25. The figure for SFAT is not above 0.25; for QVWR it is not above 0.25. As for ESSV, the enrichment ratio amounted to 1.56. The figure for VKLH is not above 0.25. For TSVR, the enrichment ratio was not above 0.25. Take GERF: the enrichment ratio was not above 0.25.

For the variant DPKL, the enrichment ratio was not above 0.25. The figure for KDLK is not above 0.25; for NCCY it is not above 0.25; for FSGE it is not above 0.25. The figure for GSCA is 0.424; for HEVL it is not above 0.25.

On to QILT, for which the enrichment ratio is not above 0.25. On to KYFQ, for which the enrichment ratio was not above 0.25. The figure for IWDI is not above 0.25; for MCTP it is not above 0.25. In the case of IKQT, the enrichment ratio is not above 0.25. Turning to IWYD, the enrichment ratio is not above 0.25. The figure for PCMN is not above 0.25; for HNPV it is not above 0.25; for DVFQ it is not above 0.25. The figure for NMFD is not above 0.25. The figure for HEWV is not above 0.25; for GTRD it is not above 0.25; for LKTD it is not above 0.25. For the variant HDDT, the enrichment ratio was not above 0.25. The figure for SHAV is not above 0.25; for IAPF it is not above 0.25.

Turning to VNIA, the enrichment ratio is not above 0.25. For the variant GSNV, the enrichment ratio is not above 0.25.

Take ISCA: the enrichment ratio is not above 0.25. Turning to WNPT, the enrichment ratio was not above 0.25. The figure for KADS is not above 0.25. The figure for LALT is 0.682; for HVTK it is not above 0.25.

Turning to RKWA, the enrichment ratio is not above 0.25. The figure for QHHW is not above 0.25; for VFCH it is not above 0.25.
